Reference: PubChem BioAssay AID720542 (National Center for Advancing Translational Sciences (NCATS), 2013)
Out of some 360,000 compounds screened, about 740 (0.21%) were called active. The shares of active, inactive and inconclusive entries below differ from those in the screen. Calls follow the shape of the dose curve; as a rule, active = well fitted inhibition curve with a large enough effect; inconclusive = small, poorly fitted or top-dose-only effect; inactive = no such curve, though single readings can be large or run the other way. Potencies of inconclusive entries are left out as doubtful fits.

System: Plasmodium falciparum AMA1 (3D7) - RON2 peptide interaction
Assay: qHTS for Inhibitors of AMA1-RON; Towards Development of Antimalarial Drug Lead: Primary Screen; also: nearly all actives have a fitted effect of over 45% in size;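 as to activity change, negative = inhibition: 0% = vehicle wells and -100% = peptide control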
Settings: AlphaScreen AMA1-biotinylated RON2 peptide binding; activity change, negative = inhibition: at 58.2 µM (top of the series) unless noted
Method in brief: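 AMA1 (3D7) with his tag at 25 nM final met compounds first, then biotinylated RON2 peptide at 25 nM; detection used donor plus acceptor beads, 10 µg/mL apiece, read by AlphaScreen after 30 min at room temperature.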
Potency is read from the fitted curve at half-maximal effect; tags tell the direction and shape of the fitted curve.

SMILES	Potency	activity change, negative = inhibition
CC(Sc1n[nH]c(N)n1)C(=O)Nc1cccc(S(=O)(=O)N2CCOCC2)c1 (centres undefined)	inconclusive [inhibitor, partial curve]	
CC(C)c1ccccc1NC(=O)Nc1ccc(F)cc1F	inconclusive [inhibitor, partial curve, poor fit]	
Cc1cc(C)nc(NC(N)=NCCc2c[nH]c3ccccc23)n1		inactive: -4.18%
O=C1NC(=O)/C(=C\c2ccc(O)cc2O)S1	inconclusive [inhibitor, partial curve]	
c1coc(CSc2ncnc3c2oc2ccccc23)c1	inconclusive [inhibitor, partial curve]	
COc1ccc2c(CC(=O)OCC(=O)Nc3ccccc3[N+](=O)[O-])coc2c1	inconclusive [inhibitor, partial curve]	
COc1ccc2c(c1)-c1c(ssc1=S)C(C)(C)N2C(=O)CSC1=NCCS1	inconclusive [inhibitor, partial curve]	
CC1=CC(C)(C)Nc2ccccc21	inconclusive [inhibitor, single point]	
COc1ccc(/C=N/NC(=O)c2nn(-c3ccccc3)c(=O)c3c(N)scc23)cc1	inconclusive [inhibitor, single point]	
Cc1ccc(Cl)cc1NC(=O)c1cc(NC(=O)C2CCCCC2C(=O)O)ccc1N1CCOCC1 (centres undefined)		inactive: -4.65%
O=C(c1cc(-c2cccs2)nc2ccccc12)N1CCN(c2ccccc2)CC1	inconclusive [inhibitor, single point]	
Cc1ccc(NC(=O)/C(C#N)=C/c2ccc(C)s2)c(C)c1		inactive: 9.27%
CCN1CCN(c2cc(C(C)C)nc3c(-c4ccccc4)c(C)nn23)CC1	inconclusive [inhibitor, partial curve]	
O=[N+]([O-])c1ccc(CSc2ncnc3ccccc23)cc1	inconclusive [inhibitor, partial curve]	
Cc1ccc(N2CCN(c3ncccc3[N+](=O)[O-])CC2)c(C)c1	active: 12.6 µM	
CC(C)(C)c1nc(N2CCN(C(=O)c3ccco3)CC2)c2nnn(Cc3ccccc3Cl)c2n1	inconclusive [inhibitor, partial curve]	
Cc1ccc(C)c2[nH]c(=O)c(CCNC(=O)c3ccco3)cc12		inactive: 0.935%
CCN(CC)c1ccc(NC(=O)c2ccccc2)cc1S(=O)(=O)Nc1ccccc1OC		inactive: -14.4%
O=C(C=Cc1ccco1)c1ccc2ccccc2c1	inconclusive [inhibitor, single point]	
CC(C)Cn1c(-c2ccc(Br)cc2)c[nH]c1=S	inconclusive [inhibitor, single point]	
CSc1ccccc1NC(=O)CN(C)C(C)C(=O)NCc1ccc2c(c1)OCO2 (centres undefined)	inconclusive [inhibitor, single point]	
Cc1ccc2c(cnn2C(=O)CCC(=O)NCc2cccc(Br)c2)c1		inactive: -0.93%
CCOC(=O)c1ccc(N/C=C/C(=O)C(C)(C)C)cc1	inconclusive [inhibitor, single point]	

SMILES	Potency	activity change, negative = inhibition
C=CCNC(=S)N/N=C/c1ccc(-c2ccc(Br)cc2)o1		inactive: 21.4%
CCN1/C(=C/C=C/C=C/C=C/c2sc3ccccc3[n+]2CC)Sc2ccccc21	inconclusive [inhibitor, single point]	
COc1ccc(OC)c(-c2csc(NC(=O)C3c4ccccc4Oc4ccccc43)n2)c1		inconclusive: -31.3% [inhibitor]
COc1ccc(Nc2ccc(S(=O)(=O)N3CCCCCC3)cc2[N+](=O)[O-])cc1	inconclusive [inhibitor, full curve]	
COc1ccc2c(c1)Sc1ccccc1N2CCN(C)C	inconclusive [inhibitor, partial curve]	
CSc1nnc(-c2sc(-c3ccccc3)nc2C)n1C		inactive: 0.42%
Cc1c(C)n(Cc2ccccc2)c2ccc(C(=O)OCCCN(C)C)cc12	inconclusive [inhibitor, partial curve]	
COC(=O)[C@@H]1[C@H]2C[C@H]3c4[nH]c5ccccc5c4CCN3C[C@@H]2CC[C@@H]1O	inconclusive [inhibitor, full curve]	
COc1cc(/C=N/NS(=O)(=O)c2ccc(C(C)(C)C)cc2)cc([N+](=O)[O-])c1O	inconclusive [inhibitor, single point]	
CCOC(=O)c1ncccc1NC(=O)CC(=O)Nc1cccnc1C(=O)OCC	active: 14.1 µM	
CC1CN(c2cc(-c3ccccc3)c3ccccc3n2)CC(C)O1 (centres undefined)		inactive: 45.9%
Cc1ccc(-c2nc3cnccn3c2Nc2ccc3c(c2)OCO3)cc1	inconclusive [inhibitor, single point]	
CCN(CC)C(=O)[C@H]1C[C@H](CC(=O)NCCN2CCOCC2)C(=O)N2CCc3c([nH]c4cc(CCC(=O)N(C)C)ccc34)[C@]12C		inactive: 15.4%
O=C(Nc1ccc(N2CCOCC2)cc1)C1(c2ccc(Cl)cc2)CCC1	inconclusive [inhibitor, partial curve]	
CCOC(=O)C(O)(c1ccc(N(C)C(=O)c2ccc(Cl)c(Cl)c2)cc1)C(F)(F)F (centres undefined)		inactive: 0%
CC1(C)C(=O)Nc2ccccc2N1C(=O)COC(=O)C12CC3CC(CC(O)(C3)C1)C2	inconclusive [inhibitor, partial curve]	
CC(=O)c1ccc(NC(=O)CSc2ccc3nnc(-c4ccccn4)n3n2)cc1	inconclusive [inhibitor, partial curve]	
CC(C)(C)c1ccc(C(=S)N2CCN(c3ccccc3)CC2)cc1	inconclusive [inhibitor, full curve, poor fit]	
CN=c1scc(C)n1/N=C/c1ccc2c(c1)OCO2	inconclusive [inhibitor, partial curve, poor fit]	
COCCn1c(C)cc(C(=O)COC(=O)c2cncc(Br)c2)c1C		inconclusive: -8.18% [inhibitor]
CCN1CCN(CCNC(=O)c2ccc3c(c2)N(Cc2ccc(F)cc2)C(=O)/C(=C/c2ccccc2)S3)CC1	inconclusive [inhibitor, partial curve]	
O=C(Nc1ccc(F)cc1)N1CCN(c2ncccn2)CC1		inactive: 5.13%
COc1ccc(C(=O)Nc2cccc(C)c2)cc1		inactive: 6.56%

SMILES	Potency	activity change, negative = inhibition
CS(=O)(=O)c1ccc2nc(NC(=O)Nc3ccc(Cl)c(Cl)c3)sc2c1		inactive: -3.23%
CCC(C)C(NS(=O)(=O)c1ccc(C)cc1)C(=O)Oc1ccc2c3c(c(=O)oc2c1)CCC3 (centres undefined)	inconclusive [inhibitor, full curve]	
COCCNC(=S)N(CCc1c(C)[nH]c2ccc(Cl)cc12)Cc1cccs1	inconclusive [inhibitor, single point]	
C1=CC2CC1CC2CNCc1ccco1 (centres undefined)	inconclusive [inhibitor, single point]	
Cc1coc2c1C(=O)C(=O)c1c-2ccc2c(C)cccc12	inconclusive [inhibitor, partial curve]	
CN(C)c1ccc(NC(=O)CSc2nc3c(c(=O)[nH]2)CCCC3)cc1	inconclusive [inhibitor, single point]	
c1ccc2c(c1)OCC(c1csc3ncnc(N4CCCCC4)c13)O2 (centres undefined)	inconclusive [inhibitor, single point]	
Cc1ccccc1OCCCN1C(=O)C(=O)c2cccc(C)c21	active: 15.8 µM	
COc1ccc(OC)c(NC(=O)CN(Cc2ccc(F)cc2)C2CCCCC2)c1	inconclusive [inhibitor, partial curve]	
N#CCC(=O)Nc1sc2c(c1C(N)=O)CCCC2		inactive: 105%
COc1ccc(C(=O)NC(CO)c2nnc(SCc3ccc(Cl)c(Cl)c3)n2C)cc1 (centres undefined)		inactive: -9.68%
O=C(Nc1ccc(C(=O)N2CCOCC2)cc1)c1cccc(Br)c1	inconclusive [inhibitor, full curve, poor fit]	
CCOC(=O)/C=C/C(=O)Nc1ccccc1-c1ccccc1NC(=O)/C=C/C(=O)OCC		inactive: -8.67% [at 2.32 µM]
C=CCN(CC=C)CCOc1ccc(OC(C)C)cc1	inconclusive [inhibitor, partial curve]	
O=C(NS(=O)(=O)Nc1ccc(Cl)cc1)c1c[nH]c2ccccc12		inactive: -9.23%
CC1CC(C)CN(c2ccc(C(=O)NCc3ccc4c(c3)OCO4)cc2[N+](=O)[O-])C1 (centres undefined)	inconclusive [inhibitor, partial curve]	
CCOC(=O)CN1C(=O)S/C(=C/c2ccc(OCc3ccc(C(=O)O)cc3)cc2)C1=O		inactive: -4.39%
COc1ccccc1NS(=O)(=O)c1ccc(NN=C2CCCC2)c([N+](=O)[O-])c1	inconclusive [inhibitor, single point]	
CC(=O)c1ccc(NC(=O)COC(=O)c2ccccc2N=Nc2ccc(N(C)C)cc2)cc1	active: 11.2 µM	
COC(=O)c1ccc(C(=O)OC)c(NC(=S)N2CCN(c3ccc(F)cc3)CC2)c1	inconclusive [inhibitor, partial curve]	
COc1cccc(-c2nn(C)c3sc(C(=O)N4CCN(c5ccccn5)CC4)cc23)c1	inconclusive [inhibitor, single point]	
CCc1ccc(S(=O)(=O)Nc2ccc(O)c3ccccc23)cc1	inconclusive [inhibitor, single point]	
CCOc1cc(/C=C2\C(=O)N(Cc3ccc(C)cc3)C(C)=C2C(=O)OC)ccc1O	inconclusive [inhibitor, single point]	
